The text below walks through data of paper PMC6524963, “Distinct RanBP1 nuclear export and cargo dissociation mechanisms between fungi and animals” (eLife, 2019).

The assay has as its target GST-yRanBP1 (S. cerevisiae, UniProt P41920). The experiment in a line: pull-down; GST-yRanBP1, GST-ΔC, GST-NESmut or their mutants on GSH beads; human or yeast CRM1 or mutants in the presence of RanGTP (hRanGTP in Figure 6A) (Figure 6A, D, E). The following applies: both partners purified.

B1: hCRM1^Q742T (natural protein)
chain: not shown
notes: CRM1, human, Q742T; source: E. coli, purified (Nickel beads, S200)
As for B1, the binding result is reported as “binds”.
